The text below walks through data of the RNAGym collection of RNA variant scans (doi:10.7554/elife.90254).

The source gives no read counts; variants with many changes may rest on few reads.

To fix the notation:
B1: LINE1-mini (parent)
chain: GGCAGAGCUCAACACAGCGUGGCAAAGUGGCUGUGGCUAGACUGCC

Variants of B1 are the subject of this data set. In words: self-cleavage, relative activity (ratio to wild type); higher = more cleavage; in vitro, sequencing; the parent is a self-cleaving ribozyme.
Consider G7C C8G G19U G33C, for which the self-cleavage came to 0.06.

Consider G7A C15G U28A G33C, for which the self-cleavage was found to be 0.05.

Take G7A C15U G19U G40U G44C: the self-cleavage was 0.1.

In the case of G7C A14C A24U C46A, the self-cleavage is 0.07.

On to G7A C23G G33U, for which the self-cleavage was found to be 0.24.

As for G7A G33A G36C, the self-cleavage stood at 0.13.

Consider G7C C8U C13A A16C, for which the self-cleavage stood at 0.04.

In the case of G7C A24U G27U A41C, the self-cleavage is 0.04.

As for G7A G19C A25G C42G, the self-cleavage came to 0.02.

As to G7A U9A A16C C42U, the self-cleavage stood at 0.1.

Consider G7C A11U G21C C23A, for which the self-cleavage turned out to be 0.03.

Take G7A U9G C15U A24C: the self-cleavage came to 0.09.

For G7A U34A A41G, the self-cleavage stood at 0.03.

Take G7C A11C G17C U20A G30U U32C U43G: the self-cleavage turned out to be 0.

For the variant G7A G33U U34C U43C, the self-cleavage is 0.07.

In the case of G7C C10U C23G U34G, the self-cleavage was found to be 0.04.

As to G7C A11G C18U G22U A25G G29C G30U C37A, the self-cleavage amounted to 0.01.

For the variant G7C C10A A16G C18U A26U U32A A39U, the self-cleavage amounted to 0.

For the variant G7A G36U C46A, the self-cleavage was 0.03.

Take G7A C23A U32C: the self-cleavage is 0.52.

Take G7A C18U G21U G29C: the self-cleavage came to 0.34.

On to G7C A16G C18U C23G, for which the self-cleavage was determined as 0.02.

For G7A G17A U38A C42A, the self-cleavage was 0.01.

Regarding G7A G22A G30C G35C, the self-cleavage turned out to be 0.11.

Turning to G7C A11G C31U G33A C37A G40C C46A, the self-cleavage came to 0.01.

As for G7A C23A G27A U38A C42A U43G, the self-cleavage came to 0.01.

Consider G7C C15A G33C A39G, for which the self-cleavage was found to be 0.05.

Take G7A C15G G22C: the self-cleavage stood at 0.06.

Consider G7A C18G G21U A26U U28C U32G G40A, for which the self-cleavage was 0.08.

With G7C A12G G22A, the self-cleavage is 0.02.

For G7C A12U G19A, the self-cleavage came to 0.61.

G7A G19C A39G: the self-cleavage stood at 0.02.

Regarding G7A G22A U34G C42U, the self-cleavage stood at 0.15.

On to G7A C23A C46G, for which the self-cleavage was 0.05.

For G7C C10A A14C G19A U28A, the self-cleavage was 0.01.

G7C A25C C31G: the self-cleavage stood at 0.03.

Regarding G7C C8G C10G A12U A26C G40U, the self-cleavage is 0.02.

Take G7C C8A A11C U20G G33C: the self-cleavage is 0.01.

Consider G7C A12C G40U, for which the self-cleavage came to 0.06.

Consider G7C C15A G17A, for which the self-cleavage is 0.02.

On to G7C A14C C31G, for which the self-cleavage came out at 0.

As to G7C A14C C31U, the self-cleavage was determined as 0.03.

With G7C C15A G36U, the self-cleavage was found to be 0.12.

Regarding G7C A11G A16U, the self-cleavage is 0.01.

Consider G7A G21C G27U G29U G40C G44A, for which the self-cleavage was determined as 0.02.

For G7A C18G G19A, the self-cleavage amounted to 0.65.

Consider G7A U20C G40A U43C, for which the self-cleavage worked out at 0.06.

Take G7A U20C G22C C37G: the self-cleavage was determined as 0.01.

Turning to G7A G17U G19U G27C, the self-cleavage is 0.02.

As for G7C A41U U43G, the self-cleavage worked out at 0.51.

On to G7A U9A C10U C23U G27U, for which the self-cleavage was 0.03.

Regarding G7C C13A C31A, the self-cleavage was 0.08.

As for G7C C13A G22U G29U C31G, the self-cleavage worked out at 0.11.

In the case of G7C C8G C13G A39U, the self-cleavage worked out at 0.05.

For the variant G7A U32G C42U C45G C46U, the self-cleavage was found to be 0.05.

With G7C A11U G40U, the self-cleavage was determined as 0.01.

G7C C8A C15G A16U U20A G40A: the self-cleavage worked out at 0.03.

As to G7C C10U A25G A26G C31U, the self-cleavage was found to be 0.01.

On to G7C C10U G40A, for which the self-cleavage turned out to be 0.04.

As to G7A C18U U28C G30A, the self-cleavage stood at 0.04.

As to G7A C31U G35U, the self-cleavage was 0.03.

G7A C15A U20A G44A C45A: the self-cleavage is 0.02.

For G7A C15G G19A G21U A24U G29C, the self-cleavage was determined as 0.09.

With G7C C10A G44U, the self-cleavage came to 0.05.

For the variant G7A C23U U43G C45G, the self-cleavage was found to be 0.02.

G7C A11U U20C A26C: the self-cleavage was determined as 0.01.

On to G7A U20G C37A A39G G40U, for which the self-cleavage stood at 0.14.

With G7C C8G A24U A41U U43C, the self-cleavage was found to be 0.12.

Turning to G7C A11G A41U, the self-cleavage came out at 0.05.

As for G7C A11G G21U C23U, the self-cleavage came out at 0.03.

Consider G7C C8U C46A, for which the self-cleavage stood at 0.14.

On to G7C C8A A26U U34A C45U, for which the self-cleavage is 0.04.

Consider G7A U32C G36A, for which the self-cleavage is 0.13.

Take G7C C10A C13U G30C U43C: the self-cleavage was 0.03.

For G7A G44U C46U, the self-cleavage is 0.14.

Turning to G7C C8G A25C G40A, the self-cleavage amounted to 0.09.

In the case of G7A G21U U34A A39G, the self-cleavage worked out at 0.02.

G7C C8U C37A: the self-cleavage is 0.01.

Consider G7C C15G C37U, for which the self-cleavage came out at 0.05.

Consider G7C C8G A16C, for which the self-cleavage amounted to 0.01.

Turning to G7C C10G C15U A24C, the self-cleavage was found to be 0.03.

As for G7C C13U G21C G22C G30C U38A, the self-cleavage was 0.03.

As for G7C A12G A14G, the self-cleavage came to 0.16.

Regarding G7A G35A U38C C45G, the self-cleavage came to 1.27.

For the variant G7A G27A C31A, the self-cleavage turned out to be 0.09.

As for G7C C10A C37U, the self-cleavage stood at 0.

In the case of G7C A11C G22A G27A G29C U43C, the self-cleavage was 0.01.

Take G7A G22A C37U: the self-cleavage was found to be 0.04.

Take G7C A14C U28A G30U G44C: the self-cleavage worked out at 0.02.

Regarding G7C A24C C42U, the self-cleavage was found to be 0.1.

Consider G7A C18A G40A, for which the self-cleavage came out at 0.01.

For the variant G7A G29C A41G, the self-cleavage was 0.01.

Take G7C A11G U34C G44U: the self-cleavage was 0.

G7C A25C G33U G36U: the self-cleavage stood at 0.03.

Take G7C A14C C18A G19U: the self-cleavage was found to be 0.08.

Take G7C C10A C18U G19A: the self-cleavage was found to be 0.

For G7A U9C C15U G17U C18U G19C G21C A25U G36C, the self-cleavage was 0.02.

As for G7A C18G C31G, the self-cleavage worked out at 0.02.

For the variant G7C C10A G21U, the self-cleavage came out at 0.02.

As to G7C C10A G21A, the self-cleavage amounted to 0.02.

Take G7C A26G A41G C42G: the self-cleavage turned out to be 0.02.

With G7A C23G U38G C42U, the self-cleavage is 0.06.

Consider G7A G19A G40A, for which the self-cleavage turned out to be 0.54.

Consider G7A U32A U38A, for which the self-cleavage came out at 0.08.

In the case of G7A G33U U43G, the self-cleavage amounted to 0.2.

In the case of G7A G17A G19A, the self-cleavage came out at 0.21.

For the variant G7A C23A U28A G29A G36C, the self-cleavage was found to be 0.13.

Turning to G7A U28G G30A C31U C46G, the self-cleavage stood at 0.02.

Consider G7C A16C C31A, for which the self-cleavage was found to be 0.04.

On to G7C C15A A26C, for which the self-cleavage turned out to be 0.09.

In the case of G7C C15A A26U, the self-cleavage was found to be 0.06.

With G7C A26C G27A G36A, the self-cleavage was 0.04.

Turning to G7C C10A A11C C13G U20G C31A C45A, the self-cleavage was 0.01.

G7C A39U G44A: the self-cleavage amounted to 0.11.

As for G7C A14C U20C A41G C42G, the self-cleavage is 0.02.

Consider G7A G19A G36U, for which the self-cleavage is 0.3.

As for G7C A11U G22U G27U, the self-cleavage is 0.01.

G7A U38A A41G: the self-cleavage is 0.03.

Take G7C A14G G19A C46A: the self-cleavage came out at 0.05.

Regarding G7A G21A C42U, the self-cleavage came out at 0.17.

Take G7C C10A A39U: the self-cleavage was 0.02.

With G7C C15G G19A, the self-cleavage is 0.03.

Consider G7C A16C U20G, for which the self-cleavage was determined as 0.09.

For G7C C8G G40U C42U, the self-cleavage was found to be 0.1.

On to G7C C8U C45G, for which the self-cleavage was 0.79.

In the case of G7A C37A U38G, the self-cleavage is 0.01.

For the variant G7C C8U G17C G22C A25G G29C, the self-cleavage was 0.06.

With G7C C10G G19C, the self-cleavage worked out at 0.02.

Turning to G7C A14G U28C U43A C46U, the self-cleavage was determined as 0.22.

Turning to G7A U32G A39G, the self-cleavage was 0.11.

Take G7A C15U A39C: the self-cleavage was determined as 0.58.

For G7A G29A C42G, the self-cleavage was 0.

With G7A G40A C45G, the self-cleavage was determined as 0.05.

Regarding G7C C13A C15G G21U G22U A41U C45U, the self-cleavage stood at 0.06.

Regarding G7C A12U U38C, the self-cleavage turned out to be 0.13.

As for G7A C23U U38G, the self-cleavage came out at 0.01.

On to G7A U9C C13U G30C, for which the self-cleavage was determined as 0.1.

With G7C C10U C18A G30U C37U, the self-cleavage amounted to 0.07.

With G7C C8A G35U, the self-cleavage was 0.39.

Regarding G7C A26C G36A, the self-cleavage is 0.08.

Take G7A C18U C46G: the self-cleavage came out at 0.15.

As for G7A C23U G27A, the self-cleavage amounted to 1.13.

Turning to G7C C15G A24U G36U, the self-cleavage was 0.02.

G7A U9C U28C U38C: the self-cleavage amounted to 0.02.

Turning to G7C C13U G35U C45G, the self-cleavage stood at 0.07.

In the case of G7C C8A G19C G27U G30A C42U, the self-cleavage was found to be 0.2.

With G7C C15U A24U, the self-cleavage turned out to be 0.17.

Consider G7C C15U A24G, for which the self-cleavage was 0.08.

With G7C C13A A24C U28C, the self-cleavage came out at 0.02.

As for G7A C23G A41G U43A C45A, the self-cleavage was 0.18.

In the case of G7C A12C G33U, the self-cleavage was 0.03.

Take G7C C8G C10U: the self-cleavage came out at 0.05.

Turning to G7C A25C G40U C45A, the self-cleavage was 0.02.

Take G7A G17C C23G G35C G40U: the self-cleavage came out at 0.19.

Turning to G7C A11G U43C, the self-cleavage is 0.01.

In the case of G7A G19C G27U U38G, the self-cleavage stood at 0.01.

Turning to G7A C15U G19A G27U, the self-cleavage is 0.22.

G7C C13A G35C G44U: the self-cleavage is 0.11.

Consider G7C C8A U20A C37G U38G C46U, for which the self-cleavage amounted to 0.02.

As to G7A U20G U38A C42A, the self-cleavage is 0.09.

For G7A G21A U28A U38A, the self-cleavage was 0.05.

With G7A U9G C15U, the self-cleavage came to 0.24.

On to G7C C8U C15A C18A A26G, for which the self-cleavage is 0.16.

For the variant G7A U34C A41G, the self-cleavage amounted to 0.32.

In the case of G7A G21A U38A, the self-cleavage was 0.09.

Turning to G7A C23A G30C, the self-cleavage came to 0.2.

Turning to G7C C10A C42A, the self-cleavage amounted to 0.01.
